According to the supplement of paper PMC8728848:
Some of the results follow.

What was measured:
Assay in all cases: glycan array binding signal (z-score within array); higher = stronger binding
Details in all cases: glycan notation: IUPAC condensed, linker removed
[1] = target: Man(a1-2)Man(a1-2)Man(a1-3)Man
Method in brief: (§1)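 The Consortium for Functional Glycomics database supplied 3228 glycan arrays, of which those lacking an available protein sequence were dropped. The binding signal, a within-array Z-score, was averaged across arrays of the same protein sequence and across linkers. Negative scores can be read as non-binding.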

[2] = target: Man(a1-2)Man(a1-2)Man(a1-6)[Man(a1-3)]Man
Method in brief: as §1

Man(a1-2)Man(a1-3)Man = target: Man(a1-2)Man(a1-3)Man
Method in brief: as §1

[3] = target: Man(a1-2)Man(a1-3)[Man(a1-2)Man(a1-6)]Man
Method in brief: as §1

[4] = target: Man(a1-2)Man(a1-3)[Man(a1-2)Man(a1-6)]Man(a1-6)[Man(a1-2)Man(a1-2)Man(a1-3)]Man(b1-4)GlcNAc(b1-4)GlcNAc
Method in brief: as §1

[5] = target: Man(a1-2)Man(a1-3)[Man(a1-6)]Man(a1-6)[Man(a1-2)Man(a1-3)]Man(b1-4)GlcNAc(b1-4)GlcNAc
Method in brief: as §1

[6] = target: Man(a1-2)Man(a1-6)[Man(a1-3)]Man(a1-6)[Man(a1-2)Man(a1-2)Man(a1-3)]Man(b1-4)GlcNAc(b1-4)GlcNAc
Method in brief: as §1

Man(a1-3)[Man(a1-6)]Man = target: Man(a1-3)[Man(a1-6)]Man
Method in brief: as §1

[7] = target: Man(a1-3)[Man(a1-6)]Man(a1-6)[Man(a1-2)Man(a1-3)]Man(b1-4)GlcNAc(b1-4)GlcNAc
Method in brief: as §1

[8] = target: Man(a1-3)[Man(a1-6)]Man(a1-6)[Man(a1-3)]Man(b1-4)GlcNAc(b1-4)GlcNAc
Method in brief: as §1

[9] = target: Man(a1-3)[Man(a1-6)]Man(b1-4)GlcNAc(b1-4)GlcNAc
Method in brief: as §1

Man(b1-4)GlcNAc = target: Man(b1-4)GlcNAc
Method in brief: as §1

Neu5Ac(a2-3)Gal = target: Neu5Ac(a2-3)Gal
Method in brief: as §1

[10] = target: Neu5Ac(a2-3)Gal(b1-3)GalNAc
Method in brief: as §1

[11] = target: Neu5Ac(a2-3)Gal(b1-3)GalNAc(b1-3)Gal(a1-4)Gal(b1-4)Glc
Method in brief: as §1

[12] = target: Neu5Ac(a2-3)Gal(b1-3)GalNAc(b1-3)Gal(b1-4)GlcNAc
Method in brief: as §1

[13] = target: Neu5Ac(a2-3)Gal(b1-3)GalNAc(b1-4)[Neu5Ac(a2-3)]Gal(b1-4)Glc
Method in brief: as §1

[14] = target: Neu5Ac(a2-3)Gal(b1-3)GalNAc6S
Method in brief: as §1

[15] = target: Neu5Ac(a2-3)Gal(b1-3)GlcNAc
Method in brief: as §1

[16] = target: Neu5Ac(a2-3)Gal(b1-3)GlcNAc6S
Method in brief: as §1

[17] = target: Neu5Ac(a2-3)Gal(b1-3)[Fuc(a1-4)]GlcNAc
Method in brief: as §1

[18] = target: Neu5Ac(a2-3)Gal(b1-3)[Fuc(a1-4)]GlcNAc(b1-3)Gal(b1-4)[Fuc(a1-3)]GlcNAc
Method in brief: as §1

[19] = target: Neu5Ac(a2-3)Gal(b1-3)[Neu5Ac(a2-3)Gal(b1-4)]GlcNAc
Method in brief: as §1

[20] = target: Neu5Ac(a2-3)Gal(b1-3)[Neu5Ac(a2-6)]GalNAc
Method in brief: as §1

Neu5Ac(a2-3)Gal(b1-4)Glc = target: Neu5Ac(a2-3)Gal(b1-4)Glc
Method in brief: as §1

[21] = target: Neu5Ac(a2-3)Gal(b1-4)GlcNAc
Method in brief: as §1

[22] = target: Neu5Ac(a2-3)Gal(b1-4)GlcNAc(b1-2)Man(a1-3)[Neu5Ac(a2-3)Gal(b1-4)GlcNAc(b1-2)Man(a1-6)]Man(b1-4)GlcNAc(b1-4)GlcNAc
Method in brief: as §1

[23] = target: Neu5Ac(a2-3)Gal(b1-4)GlcNAc(b1-3)Gal(b1-4)GlcNAc
Method in brief: as §1

[24] = target: Neu5Ac(a2-3)Gal(b1-4)GlcNAc(b1-3)Gal(b1-4)GlcNAc(b1-3)Gal(b1-4)GlcNAc
Method in brief: as §1

[25] = target: Neu5Ac(a2-3)Gal(b1-4)GlcNAc(b1-3)Gal(b1-4)[Fuc(a1-3)]GlcNAc
Method in brief: as §1

[26] = target: Neu5Ac(a2-3)Gal(b1-4)GlcNAc6S
Method in brief: as §1

[27] = target: Neu5Ac(a2-3)Gal(b1-4)[Fuc(a1-3)]GlcNAc
Method in brief: as §1

[28] = target: Neu5Ac(a2-3)Gal(b1-4)[Fuc(a1-3)]GlcNAc(b1-3)Gal
Method in brief: as §1

[29] = target: Neu5Ac(a2-3)Gal(b1-4)[Fuc(a1-3)]GlcNAc(b1-3)Gal(b1-4)GlcNAc
Method in brief: as §1

[30] = target: Neu5Ac(a2-3)Gal(b1-4)[Fuc(a1-3)]GlcNAc(b1-3)Gal(b1-4)[Fuc(a1-3)]GlcNAc(b1-3)Gal(b1-4)[Fuc(a1-3)]GlcNAc
Method in brief: as §1

[31] = target: Neu5Ac(a2-3)Gal(b1-4)[Fuc(a1-3)]GlcNAc6S
Method in brief: as §1

[32] = target: Neu5Ac(a2-3)Gal6S(b1-4)GlcNAc
Method in brief: as §1

[33] = target: Neu5Ac(a2-3)Gal6S(b1-4)[Fuc(a1-3)]GlcNAc
Method in brief: as §1

Neu5Ac(a2-3)GalNAc = target: Neu5Ac(a2-3)GalNAc
Method in brief: as §1

[34] = target: Neu5Ac(a2-3)GalNAc(b1-4)GlcNAc
Method in brief: as §1

[35] = target: Neu5Ac(a2-3)[GalNAc(b1-4)]Gal(b1-4)Glc
Method in brief: as §1

[36] = target: Neu5Ac(a2-3)[GalNAc(b1-4)]Gal(b1-4)GlcNAc
Method in brief: as §1

[37] = target: Neu5Ac(a2-3)[Neu5Ac(a2-6)]GalNAc
Method in brief: as §1

Neu5Ac(a2-6)Gal = target: Neu5Ac(a2-6)Gal
Method in brief: as §1

Neu5Ac(a2-6)Gal(b1-4)Glc = target: Neu5Ac(a2-6)Gal(b1-4)Glc
Method in brief: as §1

[38] = target: Neu5Ac(a2-6)Gal(b1-4)GlcNAc
Method in brief: as §1

[39] = target: Neu5Ac(a2-6)Gal(b1-4)GlcNAc(b1-3)Gal(b1-4)GlcNAc
Method in brief: as §1

[40] = target: Neu5Ac(a2-6)Gal(b1-4)GlcNAc(b1-3)Gal(b1-4)[Fuc(a1-3)]GlcNAc(b1-3)Gal(b1-4)[Fuc(a1-3)]GlcNAc
Method in brief: as §1

[41] = target: Neu5Ac(a2-6)Gal(b1-4)GlcNAc6S
Method in brief: as §1

Neu5Ac(a2-6)GalNAc = target: Neu5Ac(a2-6)GalNAc
Method in brief: as §1

[42] = target: Neu5Ac(a2-6)GalNAc(b1-4)GlcNAc
Method in brief: as §1

Neu5Ac(a2-8)Neu5Ac = target: Neu5Ac(a2-8)Neu5Ac
Method in brief: as §1

[43] = target: Neu5Ac(a2-8)Neu5Ac(a2-3)Gal(b1-4)Glc
Method in brief: as §1

[44] = target: Neu5Ac(a2-8)Neu5Ac(a2-3)[GalNAc(b1-4)]Gal(b1-4)Glc
Method in brief: as §1

[45] = target: Neu5Ac(a2-8)Neu5Ac(a2-8)Neu5Ac
Method in brief: as §1

[46] = target: Neu5Ac(a2-8)Neu5Ac(a2-8)Neu5Ac(a2-3)Gal(b1-4)Glc
Method in brief: as §1

[47] = target: Neu5Ac(a2-8)Neu5Ac(a2-8)Neu5Ac(a2-3)[GalNAc(b1-4)]Gal(b1-4)Glc
Method in brief: as §1

[48] = target: Neu5Ac(a2-8)Neu5Ac(a2-8)Neu5Ac(a2-8)Neu5Ac(a2-3)[GalNAc(b1-4)]Gal(b1-4)Glc
Method in brief: as §1

Neu5Ac(b1-6)GalNAc = target: Neu5Ac(b1-6)GalNAc
Method in brief: as §1

[49] = target: Neu5Ac(b2-6)Gal(b1-4)GlcNAc
Method in brief: as §1

[50] = target: Neu5Ac9Ac(a2-6)Gal(b1-4)GlcNAc
Method in brief: as §1

[51] = target: Neu5Gc(a2-3)Gal(b1-3)GlcNAc
Method in brief: as §1

[52] = target: Neu5Gc(a2-3)Gal(b1-3)[Fuc(a1-4)]GlcNAc
Method in brief: as §1

Neu5Gc(a2-3)Gal(b1-4)Glc = target: Neu5Gc(a2-3)Gal(b1-4)Glc
Method in brief: as §1

[53] = target: Neu5Gc(a2-3)Gal(b1-4)GlcNAc
Method in brief: as §1

[54] = target: Neu5Gc(a2-3)Gal(b1-4)[Fuc(a1-3)]GlcNAc
Method in brief: as §1

[55] = target: Neu5Gc(a2-6)Gal(b1-4)GlcNAc
Method in brief: as §1

Neu5Gc(a2-6)GalNAc = target: Neu5Gc(a2-6)GalNAc
Method in brief: as §1

B1: FaeGac (Escherichia coli) (protein)
chain: WMTGDFNGSVDIGGSITADDYRQKWEWKVGTGLNGFGNVLNDLTNGGTKLTITVTGNKPILLGRTKEAFATPVTGGVDGIPHIAFTDYEGASVVLRNPDGETNKKGLAYFVLPMKNAEGTKVGSVKVNASYAGVLGRGGVTSADGELLSLFADGLSSIFYGGLPRGSELSAGSAAAERTKLFGSLSRNDILGQIQRVNANITSLVDVAGSYRENMEYTDGTVVSAAYALGIANGQTIEATFNQAVTTSTQWSAPLNVAITYY
glycan array binding signal (z-score) [1]: 0.631
glycan array binding signal (z-score) [2]: 2.13
glycan array binding signal (z-score) (Man(a1-2)Man(a1-3)Man): -0.043
glycan array binding signal (z-score) [3]: 0.546
glycan array binding signal (z-score) [4]: 0.169
glycan array binding signal (z-score) [5]: 0.325
glycan array binding signal (z-score) [6]: 1.36
glycan array binding signal (z-score) (Man(a1-3)[Man(a1-6)]Man): -0.13
glycan array binding signal (z-score) [7]: 0.428
glycan array binding signal (z-score) [8]: 0.445
glycan array binding signal (z-score) [9]: -0.194
glycan array binding signal (z-score) (Man(b1-4)GlcNAc): -0.582
glycan array binding signal (z-score) (Neu5Ac(a2-3)Gal): -0.596
glycan array binding signal (z-score) [10]: -0.369
glycan array binding signal (z-score) [11]: -0.732
glycan array binding signal (z-score) [12]: -0.517
glycan array binding signal (z-score) [13]: -0.733
glycan array binding signal (z-score) [14]: -0.671
glycan array binding signal (z-score) [15]: -0.422
glycan array binding signal (z-score) [16]: -0.071
glycan array binding signal (z-score) [17]: -0.643
glycan array binding signal (z-score) [18]: 0.648
glycan array binding signal (z-score) [19]: -0.71
glycan array binding signal (z-score) [20]: -0.688
glycan array binding signal (z-score) (Neu5Ac(a2-3)Gal(b1-4)Glc): -0.079
glycan array binding signal (z-score) [21]: -0.399
glycan array binding signal (z-score) [22]: 0.176
glycan array binding signal (z-score) [23]: -0.28
glycan array binding signal (z-score) [24]: 0.035
glycan array binding signal (z-score) [25]: 0.223
glycan array binding signal (z-score) [26]: -0.423
glycan array binding signal (z-score) [27]: -0.227
glycan array binding signal (z-score) [28]: -0.588
glycan array binding signal (z-score) [29]: -0.546
glycan array binding signal (z-score) [30]: -0.333
glycan array binding signal (z-score) [31]: -0.095
glycan array binding signal (z-score) [32]: -0.634
glycan array binding signal (z-score) [33]: -0.693
glycan array binding signal (z-score) (Neu5Ac(a2-3)GalNAc): -0.665
glycan array binding signal (z-score) [34]: -0.657
glycan array binding signal (z-score) [35]: 0.008
glycan array binding signal (z-score) [36]: 0.339
glycan array binding signal (z-score) [37]: -0.177
glycan array binding signal (z-score) (Neu5Ac(a2-6)Gal): -0.568
glycan array binding signal (z-score) (Neu5Ac(a2-6)Gal(b1-4)Glc): -0.173
glycan array binding signal (z-score) [38]: -0.423
glycan array binding signal (z-score) [39]: -0.698
glycan array binding signal (z-score) [40]: -0.258
glycan array binding signal (z-score) [41]: 0.107
glycan array binding signal (z-score) (Neu5Ac(a2-6)GalNAc): -0.15
glycan array binding signal (z-score) [42]: -0.322
glycan array binding signal (z-score) (Neu5Ac(a2-8)Neu5Ac): -0.531
glycan array binding signal (z-score) [43]: -0.55
glycan array binding signal (z-score) [44]: -0.451
glycan array binding signal (z-score) [45]: -0.754
glycan array binding signal (z-score) [46]: -0.622
glycan array binding signal (z-score) [47]: 0.292
glycan array binding signal (z-score) [48]: -0.318
glycan array binding signal (z-score) (Neu5Ac(b1-6)GalNAc): 0.084
glycan array binding signal (z-score) [49]: -0.697
glycan array binding signal (z-score) [50]: -0.151
glycan array binding signal (z-score) [51]: -0.004
glycan array binding signal (z-score) [52]: -0.407
glycan array binding signal (z-score) (Neu5Gc(a2-3)Gal(b1-4)Glc): -0.764
glycan array binding signal (z-score) [53]: -0.637
glycan array binding signal (z-score) [54]: -0.623
glycan array binding signal (z-score) [55]: -0.753
glycan array binding signal (z-score) (Neu5Gc(a2-6)GalNAc): -0.175
